# The other results are listed elsewhere or left out.
# B1: PX9937B-bvu-524-33-524 (Bacteroides vulgatus) (protein)
# chain: GTAYWKNPDQFTAFNTGLHALLREKSYNFFLLGEPRADIYGDNPIGGEASQGMERLPFNTINKENVGISNYGDMYKIINQINQMIAKTTETTILTEATQNYYLGEAYGMRAYLYFHLLRSWGDVVLYLDYTEGQNLDLSNITKGVSPATEVMEQIKKDIQASENAFGSDYSFKLGRHFWSAAATQMLKGEAYLWSGRQMNGGNSDYTIAKNAFENVKKADVGLVTSSFKDIFSFENKKNKEMIFTIHNGKDEYEMWGGYYRMRLIPAQDKMVKIYCDENGNSFVGTPDAQLNGLTQLQVRREFYFKGFRNNDTRWTTSLKAVYKKDAQGVVSYFGPITYKFQGTMLEGGSTRSFLDDFPIYRYADCLLQLAMAKVLLGEDPTEEINAVRERAYGSKYFNEHKAEIAYPNDNDPEFYTDNKWMKPDNAGALEAILKERLREFMFEGKRWYDIRLLGWDYVHQYSSAEQSRLLWPIDAGTLTNNSALKQTPGYE
# Tests used:
# Assay in all cases: glycan array binding signal (z-score within array); higher = stronger binding
# Settings in all cases: glycan notation: IUPAC condensed, linker removed
# [1] = biological target: Fuc(a1-2)Gal(b1-4)GlcNAc(b1-3)Gal(b1-4)GlcNAc(b1-3)Gal(b1-4)GlcNAc
# Procedure, shortened: (§1)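 Columns mapping to the same glycan were averaged after glycan names were converted to IUPAC-condensed notation. The data come from 3228 arrays in the Consortium for Functional Glycomics database, limited to those with an available protein sequence. Binding is reported as a within-array Z-score averaged across arrays of one protein sequence and across linkers.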
# [2] = biological target: Fuc(a1-2)Gal(b1-4)GlcNAc(b1-3)GalNAc
# Procedure, shortened: as §1
# [3] = biological target: Fuc(a1-2)Gal(b1-4)GlcNAc(b1-3)[Fuc(a1-2)Gal(b1-4)GlcNAc(b1-6)]GalNAc
# Procedure, shortened: as §1
# [4] = biological target: Fuc(a1-2)Gal(b1-4)GlcNAc(b1-3)[Fuc(a1-3)[Gal(b1-4)]GlcNAc(b1-6)]Gal(b1-4)Glc
# Procedure, shortened: as §1
# [5] = biological target: Fuc(a1-2)Gal(b1-4)GlcNAc(b1-6)GalNAc
# Procedure, shortened: as §1
# [6] = biological target: Fuc(a1-2)Gal(b1-4)GlcNAc6S
# Procedure, shortened: as §1
# [7] = biological target: Fuc(a1-2)Gal(b1-4)[Fuc(a1-3)]GlcNAc
# Procedure, shortened: as §1
# [8] = biological target: Fuc(a1-2)Gal(b1-4)[Fuc(a1-3)]GlcNAc(b1-2)Man(a1-3)[Fuc(a1-2)Gal(b1-4)[Fuc(a1-3)]GlcNAc(b1-2)Man(a1-6)]Man(b1-4)GlcNAc(b1-4)[Fuc(a1-6)]GlcNAc
# Procedure, shortened: as §1
# [9] = biological target: Fuc(a1-2)Gal(b1-4)[Fuc(a1-3)]GlcNAc(b1-2)[Fuc(a1-2)Gal(b1-4)[Fuc(a1-3)]GlcNAc(b1-4)]Man(a1-3)[Fuc(a1-2)Gal(b1-4)[Fuc(a1-3)]GlcNAc(b1-2)Man(a1-6)]Man(b1-4)GlcNAc(b1-4)GlcNAc
# Procedure, shortened: as §1
# [10] = biological target: Fuc(a1-2)Gal(b1-4)[Fuc(a1-3)]GlcNAc(b1-3)Gal(b1-4)[Fuc(a1-3)]GlcNAc
# Procedure, shortened: as §1
# [11] = biological target: Fuc(a1-2)Gal(b1-4)[Fuc(a1-3)]GlcNAc(b1-3)Gal(b1-4)[Fuc(a1-3)]GlcNAc(b1-3)Gal(b1-4)[Fuc(a1-3)]GlcNAc
# Procedure, shortened: as §1
# [12] = biological target: Fuc(a1-2)Gal(b1-4)[Fuc(a1-3)]GlcNAc(b1-3)GalNAc
# Procedure, shortened: as §1
# [13] = biological target: Fuc(a1-2)Gal(b1-4)[Fuc(a1-3)]GlcNAc(b1-3)[Neu5Ac(a2-6)Gal(b1-4)GlcNAc(b1-6)]Gal(b1-4)Glc
# Procedure, shortened: as §1
# [14] = biological target: Fuc(a1-2)Gal3S(b1-4)GlcNAc
# Procedure, shortened: as §1
# [15] = biological target: Fuc(a1-2)Gal6S(b1-3)GlcNAc
# Procedure, shortened: as §1
# [16] = biological target: Fuc(a1-2)Gal6S(b1-3)GlcNAc6S
# Procedure, shortened: as §1
# Fuc(a1-2)Gal6S(b1-4)Glc = biological target: Fuc(a1-2)Gal6S(b1-4)Glc
# Procedure, shortened: as §1
# [17] = biological target: Fuc(a1-2)Gal6S(b1-4)Glc6S
# Procedure, shortened: as §1
# Fuc(a1-2)[Gal(a1-3)]Gal = biological target: Fuc(a1-2)[Gal(a1-3)]Gal
# Procedure, shortened: as §1
# [18] = biological target: Fuc(a1-2)[Gal(a1-3)]Gal(b1-3)GalNAc
# Procedure, shortened: as §1
# [19] = biological target: Fuc(a1-2)[Gal(a1-3)]Gal(b1-3)GalNAc(b1-3)Gal(a1-4)Gal(b1-4)Glc
# Procedure, shortened: as §1
# [20] = biological target: Fuc(a1-2)[Gal(a1-3)]Gal(b1-3)GlcNAc
# Procedure, shortened: as §1
# [21] = biological target: Fuc(a1-2)[Gal(a1-3)]Gal(b1-3)GlcNAc(b1-2)Man(a1-3)[Fuc(a1-2)[Gal(a1-3)]Gal(b1-3)GlcNAc(b1-2)Man(a1-6)]Man(b1-4)GlcNAc(b1-4)GlcNAc
# Procedure, shortened: as §1
# [22] = biological target: Fuc(a1-2)[Gal(a1-3)]Gal(b1-3)GlcNAc(b1-2)Man(a1-3)[Fuc(a1-2)[Gal(a1-3)]Gal(b1-3)GlcNAc(b1-2)Man(a1-6)]Man(b1-4)GlcNAc(b1-4)[Fuc(a1-6)]GlcNAc
# Procedure, shortened: as §1
# [23] = biological target: Fuc(a1-2)[Gal(a1-3)]Gal(b1-3)GlcNAc(b1-3)GalNAc
# Procedure, shortened: as §1
# [24] = biological target: Fuc(a1-2)[Gal(a1-3)]Gal(b1-3)GlcNAc(b1-6)GalNAc
# Procedure, shortened: as §1
# [25] = biological target: Fuc(a1-2)[Gal(a1-3)]Gal(b1-4)Glc
# Procedure, shortened: as §1
# [26] = biological target: Fuc(a1-2)[Gal(a1-3)]Gal(b1-4)GlcNAc
# Procedure, shortened: as §1
# [27] = biological target: Fuc(a1-2)[Gal(a1-3)]Gal(b1-4)GlcNAc(b1-2)Man
# Procedure, shortened: as §1
# [28] = biological target: Fuc(a1-2)[Gal(a1-3)]Gal(b1-4)GlcNAc(b1-2)Man(a1-3)[Fuc(a1-2)[Gal(a1-3)]Gal(b1-4)GlcNAc(b1-2)Man(a1-6)]Man(b1-4)GlcNAc(b1-4)GlcNAc
# Procedure, shortened: as §1
binder,measurement,setting,value
B1,glycan array binding signal (z-score),[1],-0.357
same,glycan array binding signal (z-score),[2],-0.048
same,glycan array binding signal (z-score),[3],-0.197
same,glycan array binding signal (z-score),[4],-0.432
same,glycan array binding signal (z-score),[5],-0.136
same,glycan array binding signal (z-score),[6],-0.16
same,glycan array binding signal (z-score),[7],-0.365
same,glycan array binding signal (z-score),[8],0.361
same,glycan array binding signal (z-score),[9],-0.021
same,glycan array binding signal (z-score),[10],-0.171
same,glycan array binding signal (z-score),[11],-0.25
same,glycan array binding signal (z-score),[12],0.321
same,glycan array binding signal (z-score),[13],-0.284
same,glycan array binding signal (z-score),[14],-0.476
same,glycan array binding signal (z-score),[15],-0.476
same,glycan array binding signal (z-score),[16],0.931
same,glycan array binding signal (z-score),Fuc(a1-2)Gal6S(b1-4)Glc,-0.456
same,glycan array binding signal (z-score),[17],-0.158
same,glycan array binding signal (z-score),Fuc(a1-2)[Gal(a1-3)]Gal,0.035
same,glycan array binding signal (z-score),[18],-0.401
same,glycan array binding signal (z-score),[19],0.046
same,glycan array binding signal (z-score),[20],-0.275
same,glycan array binding signal (z-score),[21],0.131
same,glycan array binding signal (z-score),[22],-0.509
same,glycan array binding signal (z-score),[23],-0.322
same,glycan array binding signal (z-score),[24],-0.124
same,glycan array binding signal (z-score),[25],-0.088
same,glycan array binding signal (z-score),[26],-0.15
same,glycan array binding signal (z-score),[27],-0.313
same,glycan array binding signal (z-score),[28],1.09

# Source: the supplement of paper PMC8728848
